Consider 40 sequences from article PMC12820563, “FoxP3 forms a head-to-head dimer in vivo and stabilizes its multimerization on adjacent microsatellites”.

This is one part of the list.

The assay deals with T1, MBP-FoxP1dN (Mus musculus, UniProt P58462 326-579).
T1 sequence: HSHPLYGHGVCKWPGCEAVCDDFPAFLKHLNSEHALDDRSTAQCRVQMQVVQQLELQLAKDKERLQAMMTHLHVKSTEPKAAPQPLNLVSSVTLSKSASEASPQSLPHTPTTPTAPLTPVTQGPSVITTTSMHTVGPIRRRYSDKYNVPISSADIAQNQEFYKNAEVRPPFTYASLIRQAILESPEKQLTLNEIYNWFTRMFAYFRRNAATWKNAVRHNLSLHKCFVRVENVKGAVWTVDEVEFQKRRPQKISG
Briefly: PD-seq (MBP pull-down with sequencing); 20 mM Tris-HCl pH 7.5, 100 mM NaCl, 1.5 mM MgCl2, 0.4 uM protein, 0.1 uM dsDNA library, 30 min, room temperature, amylose pull-down; high values mean tight binding. Conditions: protein: recombinant; tags: His6-MBP; chain copies: 2; dsDNA, one strand shown. The procedure, abridged: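 In Tris pH 7.5 buffer with NaCl and MgCl2, 0.4 µM His6-MBP-tagged mouse FoxP3 or FoxP1 fragment lacking the N-terminus, from E. coli, met 0.1 µM Klenow-filled double-stranded degenerate DNA library for 30 min at room temperature. Three washes on amylose resin followed capture of the complexes, then proteinase K release of DNA, PCR barcoding and Illumina sequencing. Binding is taken as pooled-replicate reads-per-million enrichment of pull-down relative to input.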
For “GATGATTGTTCTCCCAGCTGATGAATTAAACCATTCGAGTAAACAAATTTTCCTAATCTTTCTGTTCAAGCGCCATCTAC”, the binding signal is 0.919 RPM ratio (pull-down/input).

Turning to “GATGATTGTTCTCCCAGCTGATGAATTGCGCGATTCGAGTAAACAAATTTTCCTAATCTTTCTGTTCAAGCGCCATCTAC”, the binding signal is 1.09 RPM ratio (pull-down/input).

“GATGATTGTTCTCCCAGCTGATGAATTGCTAGGTTCGAGTAAACAAATTTTCCTAATCTTTCTGTTCAAGCGCCATCTAC”: the binding signal is 0.944 RPM ratio (pull-down/input).

With “GATGATTGTTCTCCCAGCTGATGAATTATAATTATCGAGTAAACAAATTTTCCTAATCTTTCTGTTCAAGCGCCATCTAC”, the binding signal is 1.37 RPM ratio (pull-down/input).

In the case of “GATGATTGTTCTCCCAGCTGATGAATTATAAAAATCGAGTAAACAAATTTTCCTAATCTTTCTGTTCAAGCGCCATCTAC”, the binding signal is 1.08 RPM ratio (pull-down/input).

Consider “GATGATTGTTCTCCCAGCTGATGAATTGAAAAATTCGAGTAAACAAATTTTCCTAATCTTTCTGTTCAAGCGCCATCTAC”, for which the binding signal is 0.848 RPM ratio (pull-down/input).

For “GATGATTGTTCTCCCAGCTGATGAATTAGGGTGATCGAGTAAACAAATTTTCCTAATCTTTCTGTTCAAGCGCCATCTAC”, the binding signal was 0.866 RPM ratio (pull-down/input).

As for “GATGATTGTTCTCCCAGCTGATGAATTCGCACGATCGAGTAAACAAATTTTCCTAATCTTTCTGTTCAAGCGCCATCTAC”, the binding signal was 0.935 RPM ratio (pull-down/input).

Regarding “GATGATTGTTCTCCCAGCTGATGAATTGTCGGACTCGAGTAAACAAATTTTCCTAATCTTTCTGTTCAAGCGCCATCTAC”, the binding signal was 0.885 RPM ratio (pull-down/input).

Consider “GATGATTGTTCTCCCAGCTGATGAATTAAGCAAATCGAGTAAACAAATTTTCCTAATCTTTCTGTTCAAGCGCCATCTAC”, for which the binding signal is 1.18 RPM ratio (pull-down/input).

For the sequence “GATGATTGTTCTCCCAGCTGATGAATTATGCTATTCGAGTAAACAAATTTTCCTAATCTTTCTGTTCAAGCGCCATCTAC”, the binding signal was 1.23 RPM ratio (pull-down/input).

For “GATGATTGTTCTCCCAGCTGATGAATTGACGACCTCGAGTAAACAAATTTTCCTAATCTTTCTGTTCAAGCGCCATCTAC”, the binding signal was 1.02 RPM ratio (pull-down/input).

“GATGATTGTTCTCCCAGCTGATGAATTACAGTTCTCGAGTAAACAAATTTTCCTAATCTTTCTGTTCAAGCGCCATCTAC”: the binding signal is 1.05 RPM ratio (pull-down/input).

“GATGATTGTTCTCCCAGCTGATGAATTATAGTTTTCGAGTAAACAAATTTTCCTAATCTTTCTGTTCAAGCGCCATCTAC”: the binding signal was 1.26 RPM ratio (pull-down/input).

For “GATGATTGTTCTCCCAGCTGATGAATTATTCAAGTCGAGTAAACAAATTTTCCTAATCTTTCTGTTCAAGCGCCATCTAC”, the binding signal was 0.991 RPM ratio (pull-down/input).

Turning to “GATGATTGTTCTCCCAGCTGATGAATTTAGCGGCTCGAGTAAACAAATTTTCCTAATCTTTCTGTTCAAGCGCCATCTAC”, the binding signal is 0.898 RPM ratio (pull-down/input).

Regarding “GATGATTGTTCTCCCAGCTGATGAATTGTCTTATTCGAGTAAACAAATTTTCCTAATCTTTCTGTTCAAGCGCCATCTAC”, the binding signal was 1.18 RPM ratio (pull-down/input).

“GATGATTGTTCTCCCAGCTGATGAATTAAACGGATCGAGTAAACAAATTTTCCTAATCTTTCTGTTCAAGCGCCATCTAC”: the binding signal is 0.841 RPM ratio (pull-down/input).

For the sequence “GATGATTGTTCTCCCAGCTGATGAATTAGATGTGTCGAGTAAACAAATTTTCCTAATCTTTCTGTTCAAGCGCCATCTAC”, the binding signal was 1.01 RPM ratio (pull-down/input).

Consider “GATGATTGTTCTCCCAGCTGATGAATTTTAGTGATCGAGTAAACAAATTTTCCTAATCTTTCTGTTCAAGCGCCATCTAC”, for which the binding signal is 0.914 RPM ratio (pull-down/input).

As for “GATGATTGTTCTCCCAGCTGATGAATTGTTGCTGTCGAGTAAACAAATTTTCCTAATCTTTCTGTTCAAGCGCCATCTAC”, the binding signal was 2 RPM ratio (pull-down/input).

As to “GATGATTGTTCTCCCAGCTGATGAATTCGGACTCTCGAGTAAACAAATTTTCCTAATCTTTCTGTTCAAGCGCCATCTAC”, the binding signal was 0.854 RPM ratio (pull-down/input).

For the sequence “GATGATTGTTCTCCCAGCTGATGAATTTTTCAGATCGAGTAAACAAATTTTCCTAATCTTTCTGTTCAAGCGCCATCTAC”, the binding signal is 0.882 RPM ratio (pull-down/input).

In the case of “GATGATTGTTCTCCCAGCTGATGAATTTTAAGTCTCGAGTAAACAAATTTTCCTAATCTTTCTGTTCAAGCGCCATCTAC”, the binding signal was 0.861 RPM ratio (pull-down/input).

With “GATGATTGTTCTCCCAGCTGATGAATTCTAGTTCTCGAGTAAACAAATTTTCCTAATCTTTCTGTTCAAGCGCCATCTAC”, the binding signal was 0.825 RPM ratio (pull-down/input).

As to “GATGATTGTTCTCCCAGCTGATGAATTGTTGGTATCGAGTAAACAAATTTTCCTAATCTTTCTGTTCAAGCGCCATCTAC”, the binding signal is 1.92 RPM ratio (pull-down/input).

For the sequence “GATGATTGTTCTCCCAGCTGATGAATTAAGGGCGTCGAGTAAACAAATTTTCCTAATCTTTCTGTTCAAGCGCCATCTAC”, the binding signal is 0.85 RPM ratio (pull-down/input).

For the sequence “GATGATTGTTCTCCCAGCTGATGAATTGGGGCTCTCGAGTAAACAAATTTTCCTAATCTTTCTGTTCAAGCGCCATCTAC”, the binding signal is 0.79 RPM ratio (pull-down/input).

As to “GATGATTGTTCTCCCAGCTGATGAATTTCGACTGTCGAGTAAACAAATTTTCCTAATCTTTCTGTTCAAGCGCCATCTAC”, the binding signal is 0.795 RPM ratio (pull-down/input).

For “GATGATTGTTCTCCCAGCTGATGAATTGCATTGGTCGAGTAAACAAATTTTCCTAATCTTTCTGTTCAAGCGCCATCTAC”, the binding signal is 1.15 RPM ratio (pull-down/input).

Regarding “GATGATTGTTCTCCCAGCTGATGAATTCTTCTAATCGAGTAAACAAATTTTCCTAATCTTTCTGTTCAAGCGCCATCTAC”, the binding signal was 1.02 RPM ratio (pull-down/input).

Take “GATGATTGTTCTCCCAGCTGATGAATTGGGGTGATCGAGTAAACAAATTTTCCTAATCTTTCTGTTCAAGCGCCATCTAC”: the binding signal is 0.894 RPM ratio (pull-down/input).

Regarding “GATGATTGTTCTCCCAGCTGATGAATTCACCCTTTCGAGTAAACAAATTTTCCTAATCTTTCTGTTCAAGCGCCATCTAC”, the binding signal was 0.883 RPM ratio (pull-down/input).

As for “GATGATTGTTCTCCCAGCTGATGAATTAGTAGTGTCGAGTAAACAAATTTTCCTAATCTTTCTGTTCAAGCGCCATCTAC”, the binding signal was 1 RPM ratio (pull-down/input).

For the sequence “GATGATTGTTCTCCCAGCTGATGAATTGAGACAGTCGAGTAAACAAATTTTCCTAATCTTTCTGTTCAAGCGCCATCTAC”, the binding signal is 0.909 RPM ratio (pull-down/input).

Consider “GATGATTGTTCTCCCAGCTGATGAATTTTGCTTGTCGAGTAAACAAATTTTCCTAATCTTTCTGTTCAAGCGCCATCTAC”, for which the binding signal was 1.65 RPM ratio (pull-down/input).

In the case of “GATGATTGTTCTCCCAGCTGATGAATTTACTACTTCGAGTAAACAAATTTTCCTAATCTTTCTGTTCAAGCGCCATCTAC”, the binding signal was 1.41 RPM ratio (pull-down/input).

Turning to “GATGATTGTTCTCCCAGCTGATGAATTCGTGGGATCGAGTAAACAAATTTTCCTAATCTTTCTGTTCAAGCGCCATCTAC”, the binding signal is 0.84 RPM ratio (pull-down/input).

In the case of “GATGATTGTTCTCCCAGCTGATGAATTTTTCGGTTCGAGTAAACAAATTTTCCTAATCTTTCTGTTCAAGCGCCATCTAC”, the binding signal was 1.02 RPM ratio (pull-down/input).

For the sequence “GATGATTGTTCTCCCAGCTGATGAATTAGCCTTTTCGAGTAAACAAATTTTCCTAATCTTTCTGTTCAAGCGCCATCTAC”, the binding signal was 1.03 RPM ratio (pull-down/input).
